The campaign covered roughly 48,000 compounds. About 1,200 (2.5%) were called active. Another 2% or so got no clear call; they are omitted.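 Rule for the calls: active = activation of at least 60% and not above a set upper limit (about 1 call in 100 departs from these limits); inconclusive = activation of 40% to 60%, or above that upper limit; inactive = activation under 40%.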 Some of the results follow.

The assay deals with Probable G-protein coupled receptor 32 (Homo sapiens) (UniProt O75388). Briefly: qHTS for Agonists of Human Resolvin D1 Receptor DRV1. Note: 0% is about no effect. To be noted: CHO-K1 GPR32 beta-arrestin PathHunter luminescence, 90 min; at 76.9 µM; active compounds read high; zero percent set by DMSO-only wells. The essentials: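 PathHunter beta-arrestin recruitment in CHO-K1 cells stably expressing ProLink-tagged GPR32. Cells were exposed to compound for 90 min at 37 C, then chemiluminescence was read after 1 h detection at ambient temperature; DMSO served as basal control.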
UniProt O75388, sequence (O75388 whole entry, looked up): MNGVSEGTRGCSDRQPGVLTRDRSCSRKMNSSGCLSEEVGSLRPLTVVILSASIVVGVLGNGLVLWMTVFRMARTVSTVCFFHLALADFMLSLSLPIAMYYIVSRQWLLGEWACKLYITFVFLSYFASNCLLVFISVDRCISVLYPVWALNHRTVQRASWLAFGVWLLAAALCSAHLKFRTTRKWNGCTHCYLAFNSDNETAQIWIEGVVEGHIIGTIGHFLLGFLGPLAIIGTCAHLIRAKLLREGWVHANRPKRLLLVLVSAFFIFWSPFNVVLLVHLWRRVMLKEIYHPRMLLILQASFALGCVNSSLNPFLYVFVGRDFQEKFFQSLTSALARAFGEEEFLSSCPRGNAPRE
For orientation: qHTS replaces the single test concentration by a dilution series.
Regarding `Cc1cc(OCC(=O)N(Cc2ccc(N(C)C)cc2)Cc2ccco2)cc(C)c1Cl`, the activation is inactive: -32.5%. Turning to `CCOC(=O)c1ccc(OC(=O)c2cn(-c3ccc(C)cc3)c(=O)c3ccccc23)cc1`, the activation was inactive: 10.5%. For `Cc1nn(-c2ccccc2)c(-n2cccc2)c1C(=O)N1CCN(c2ccccc2)CC1` the value was inactive: -5.23%; for `COc1ccc(NC(=O)Cn2c(=O)n(Cc3ccco3)c(=O)c3sc4ccccc4c32)c(OC)c1`, inactive: 19.8%; for `Cc1ccc(NC(=O)C2CCCN(C(=O)c3cnn(-c4ccccc4)c3-n3cccc3)C2)cc1` (configuration not stated), inactive: -8.72%. The same measure for `CN(C)c1ccc(O)c2c1C[C@H]1C[C@H]3[C@H](N(C)C)C(=O)C(C(N)=O)=C(O)[C@@]3(O)C(=O)C1=C2O`: inactive: -59.8%; for `COc1ccc(CNCCC(c2ccc(C)cc2)c2ccco2)cc1` (configuration not stated): inactive: -7.58%. For `O=C(Nc1noc2ccccc12)c1cccc(Cl)c1Cl` the value was inactive: -6.03%; for `Cc1ccccc1NC(=O)C(Cc1ccccc1)N1Cc2ccccc2C1=O` (configuration not stated), inactive: -23.3%. As to `COc1ccccc1/C=C/c1onc(C)c1S(=O)(=O)N1CCC(C(=O)N2CCC(C)CC2)CC1`, the activation was inactive: -6.77%. For `CCc1nnc(NC(=O)CSc2nc3c([nH]c4ccccc43)c(=O)n2-c2ccc(F)cc2)s1` the value was inactive: -8.49%. On to `Cc1ccc2oc(=O)c3cc(C(=O)Nc4ccc(C)c(F)c4)sc3c2c1`, for which the activation was inactive: -4.85%. For the molecule `Cc1c(Cl)cccc1NC(=O)c1cc(S(=O)(=O)N2CCCCC2)cn1C`, the activation was inactive: 19.2%. `Cc1ccc(-n2nc(C)c3c(C)cc(=O)n(CC(=O)Nc4cc(Cl)ccc4C)c32)cc1`: the activation is inactive: -5.34%. For `Nc1ccc2oc(-c3ccccc3Br)nc2c1` the value was inactive: 8.72%.

Take `Cc1cccn2c(=O)cc(COc3ccc(NC(=O)C(C)C)cc3)nc12`: the activation was inactive: 0.42%. Take `COC(=O)c1sccc1S(=O)(=O)N(CC(=O)Nc1ccccc1C)c1ccc(Cl)cc1`: the activation is inactive: -18.9%. The same measure for `Cc1ccccc1NC(=O)CSc1nc2ccc(NC(=O)CCc3ccccc3)cc2s1`: inactive: 3.99%; for `COc1ccccc1-c1nnc(C2CCN(S(=O)(=O)c3ccc(CC(C)C)cc3)CC2)o1`: inactive: -19.6%. For `Nc1c(C(=O)Nc2ccc(C(F)(F)F)cc2)sc2nc(-c3cccs3)ccc12` the value was active: 70.8%; for `COc1cccc(-c2nc(SCc3cccc(Br)c3)n3[nH]c(=O)cc3n2)c1`, inactive: 18.5%; for `O=C(CCc1ccccc1)NCc1ccc2c(c1)CCN2C(=O)c1ccccc1`, inactive: -18.4%. For `CC(=O)N1CCc2c(sc3c2c(=O)n(CCc2ccccc2)c(=O)n3CC(=O)Nc2ccccc2F)C1` the value was inactive: -12.5%; for `COc1ccccc1NC(=O)c1oc2ccccc2c1NC(=O)Cc1cccs1`, inactive: 7.59%; for `Cn1cc(C(=O)O)c(=O)c2cc(S(=O)(=O)N3CCOCC3)ccc21`, inactive: -24.8%. For `COc1cc2c(cc1OC)C(c1ccc(Cl)cc1)N(c1cccc(C#N)c1)C(=O)C2` (configuration not stated), the activation was inactive: -1.09%. On to `COc1ccccc1N1CCN(c2ccc(=O)n(CC(=O)Nc3cc(F)ccc3C)n2)CC1`, for which the activation was inactive: 22.6%. Turning to `COc1ccc(-n2c(SCC(=O)c3ccc(Cl)cc3)nc3c([nH]c4ccccc43)c2=O)cc1`, the activation was inactive: 31.7%. `COc1cccc(NC(=O)Cn2c(=O)n(-c3ccccc3)c(=O)c3ccc(C(=O)NCc4ccc5c(c4)OCO5)cc32)c1`: the activation is inactive: -16.2%. Take `CCC(NC(C)C)C(O)c1ccc(O)c(O)c1` (configuration not stated): the activation is inactive: 14.1%. For `Cn1cc(S(=O)(=O)N2CCCCCC2)cc1C(=O)N1CCN(c2ccccc2F)CC1` the value was inactive: -5.64%; for `COc1ccc(CCNc2ncnc3onc(-c4ccc(Cl)cc4)c23)c(OC)c1`, inactive: 20.2%; for `CCc1ccc(NC(=O)CN2C(=O)C3CCCN3c3ccc(S(=O)(=O)N(CC)CC)cc32)cc1` (configuration not stated), inactive: -18.6%.

Take `Cc1c(CC(=O)N2CCCCC2)c(=O)oc2cc(O)ccc12`: the activation is inactive: 10.1%. Consider `Cc1ccccc1Nc1sc(C(=O)c2ccccc2)c(N)c1S(C)(=O)=O`, for which the activation is inactive: -32.2%. Turning to `CCC(Cc1c(I)cc(I)c(N)c1I)C(=O)O` (configuration not stated), the activation was inactive: -4.76%. As to `Cc1ccc(N(CC(O)Cn2c3ccccc3c3ccccc32)S(=O)(=O)c2ccc(F)cc2)cc1` (configuration not stated), the activation was inactive: -6.9%.

With `Cc1cc(NC(=O)CSc2nc(-c3cccc(F)c3)nc3c2c(=O)n(C)c(=O)n3C)no1`, the activation was inactive: -2.82%. The same measure for `CCc1ccc(NC(=O)Cn2c(=O)n(CCCC(=O)NCc3ccccc3Cl)c(=O)c3ccccc32)cc1`: inactive: -4.45%; for `CCOC(=O)c1ccc(N2CC3=C(C2=O)C(c2ccc(OC)cc2)NC(=O)N3C)cc1` (configuration not stated): inactive: 0.404%; for `COc1ccc2c(Sc3ccc(C)cc3)c(C(=O)NCC(C)c3ccccc3)[nH]c2c1` (configuration not stated): inactive: -6.33%.

For the molecule `CCn1cc(C(=O)N2CCN(c3cccc(C)c3)C(C)C2)c(=O)c2cc(S(=O)(=O)N3CCOCC3)ccc21` (configuration not stated), the activation is inactive: 5.15%. Consider `COc1ccc(-c2nsc(NC(=O)c3oc4ccccc4c3C)n2)cc1`, for which the activation was inactive: -19.3%. For the molecule `CCCNc1ncnc2c1c(-c1ccccc1)cn2-c1ccccc1`, the activation was inactive: -40.1%. `C[C@]12CC[C@@H]3c4ccc(O)cc4CC[C@H]3[C@@H]1CC[C@@H]2OC(=O)CCC1CCCC1`: the activation was inactive: 30.8%.

Turning to `COCCn1c(C)cc(O)c(C(c2ccccc2Cl)N2CCCCC2)c1=O` (configuration not stated), the activation is inactive: -2.9%. As to `CCCN1CCN(CCCNC(=O)c2cc3c(s2)-c2ccccc2OC3)CC1`, the activation is inactive: 18.5%. For `N#Cc1ccccc1OCC(=O)N1CCN(c2ccccc2)CC1` the value was inactive: 5.81%. For `CN(C)c1ccc(CNC(=O)CCCN2C(=O)CCn3nc(-c4cn(C)c5ccccc45)cc32)cc1` the value was inactive: -6%.

As to `O=C(Cn1ccc2cc(S(=O)(=O)N3CCCCCC3)ccc21)NCc1cccc(Cl)c1`, the activation is inactive: -2.23%.

As for `Cc1coc2c(C)c3oc(=O)c(CCC(=O)N4CCCCC4)c(C)c3cc12`, the activation was inactive: -14.8%. The same measure for `Cc1nc2c(c(C)c1CCC(=O)Nc1ccc(F)cc1)c(=O)n(C)c(=O)n2C`: inactive: 21.5%.

The values above are taken from PubChem BioAssay AID1346428 (National Center for Advancing Translational Sciences (NCATS), 2018).
